According to the supplement of paper PMC12355420:
Counter-ions that a name gives are not always drawn. Some of the results follow. Cut-off read from the data, not from the text of the source: active = 0.5 or less and inactive = the rest. Many values rest on one well or one pass, so single values are uncertain.

What was measured:
Details in all cases: 50 µM; 24 h
[1] = tested on: HeLa VPS33A reporter cells; assay: relative cell viability (CellMask signal) vs DMSO (fraction of DMSO); higher = less cytotoxic;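 note: primary screen of an FDA-approved drug library in HeLa reporter cells in 96-well format, CellMask signal normalized to DMSO-treated wells set as 1, under 0.5 deemed highly cytotoxic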
[2] = tested on: HeLa VPS33A R498W KI + HA-SDC1-FLAG; assay: relative GAG core protein HA-SDC1 amount per cell number vs DMSO (fraction of DMSO); higher = more SDC1 (GAG core protein);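 note: HA-SDC1 level read out by In-Cell Western staining with an anti-HA antibody against the N-terminal tag, screening FDA-approved library drugs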
[3] = tested on: HeLa VPS33A KO + NLuc-VPS33A R498W; assay: relative mutant VPS33A R498W amount (NanoLuc luminescence) vs DMSO (fraction of DMSO); HeLa model of a glycosaminoglycan (GAG) storage disease; KI is knock-in and KO knock-out; SDC1 is syndecan 1; higher = higher mutant VPS33A level;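 note: screen of an FDA-approved drug library, NanoLuc luminescence read after lysing the treated cells, taken as a measure of mutant VPS33A protein stability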

| SMILES | relative cell viability [1] | relative GAG core protein HA-SDC1 amount per cell number [2] | relative mutant VPS33A R498W amount [3] |
| --- | --- | --- | --- |
| CC1(C)O[C@@H]2C[C@H]3[C@@H]4CCC5=CC(=O)C=C[C@]5(C)[C@@]4(F)[C@@H](O)C[C@]3(C)[C@]2(C(=O)CO)O1 [Triamcinolone Acetonide] | 1.57 | inactive: 1.46 | 0.488 |
| CC(NCCc1ccc(O)cc1)C(O)c1ccc(O)cc1 (stereo unspecified) [Ritodrine HCl] | 1.32 | inactive: 0.884 | 1.28 |
| CCc1c2c(nc3ccc(OC(=O)N4CCC(N5CCCCC5)CC4)cc13)-c1cc3c(c(=O)n1C2)COC(=O)[C@]3(O)CC [Irinotecan hydrochloride] | 1.07 | inactive: 0.644 | 0.764 |
| CC(C)Cc1ccc(C(C)C(=O)O)cc1 (stereo unspecified) [Ibuprofen Lysine] | 0.956 | inactive: 1.49 | 1.26 |
| C[C@]12C=CC(=O)C=C1CC[C@@H]1[C@@H]2[C@@H](O)C[C@@]2(C)[C@H]1CC[C@]2(O)C(=O)CO [Prednisolone] | 1.03 | inactive: 1.01 | 0.92 |
| Cc1nc2c([nH]1)-c1ccccc1N(C(=O)c1ccc(NC(=O)c3ccccc3-c3ccccc3)cc1)CC2 [Conivaptan HCl] | 1.25 | inactive: 0.627 | 0.631 |
| C#CCC(Cc1cnc2nc(N)nc(N)c2n1)c1ccc(C(=O)N[C@@H](CCC(=O)O)C(=O)O)cc1 (stereo partly specified) [Pralatrexate] | 0.972 | inactive: 0.809 | 0.382 |
| CC(CCc1ccccc1)NCC(O)c1ccc(O)c(C(N)=O)c1 (stereo unspecified) [Labetalol HCl] | 1.05 | inactive: 0.69 | 1.69 |
| CCCCCOC(=O)Nc1nc(=O)n([C@@H]2O[C@H](C)[C@@H](O)[C@H]2O)cc1F [Capecitabine] | 1.32 | inactive: 0.962 | 0.913 |
| N[C@@H](Cc1c[nH]c2ccc(O)cc12)C(=O)O [5-hydroxy-L-Tryptophan] | 1.03 | inactive: 0.792 | 1.33 |
| COC(=O)CCc1ccc(OCC(O)CNC(C)C)cc1 (stereo unspecified) [Esmolol HCl] | 0.843 | inactive: 1.08 | 1.39 |
| Nc1ccccc1NC(=O)c1ccc(CNC(=O)OCc2cccnc2)cc1 [Entinostat (MS-275,SNDX-275)] | 0.687 | inactive: 0.749 | 4.79 |
